Test results from paper PMC4274898.
These are yes or no findings as the source states them, for the method shown. For part of these data: Binding seen in cells or lysates may run through a third protein. Some results given as binding are weak or reduced against the parent protein; the word gives no strength.

How the values were obtained:
[1] = biological target: T1, cEYFP-ARF6 (Arabidopsis thaliana) (UniProt Q9ZTX8); experiment: split reporter; BiFC: cEYFP-ARF and nEYFP-Aux/IAA fusions co-expressed in onion epidermal cells by particle bombardment; 25°C in dark for 16-24 h; YFP fluorescence imaged
T1 sequence: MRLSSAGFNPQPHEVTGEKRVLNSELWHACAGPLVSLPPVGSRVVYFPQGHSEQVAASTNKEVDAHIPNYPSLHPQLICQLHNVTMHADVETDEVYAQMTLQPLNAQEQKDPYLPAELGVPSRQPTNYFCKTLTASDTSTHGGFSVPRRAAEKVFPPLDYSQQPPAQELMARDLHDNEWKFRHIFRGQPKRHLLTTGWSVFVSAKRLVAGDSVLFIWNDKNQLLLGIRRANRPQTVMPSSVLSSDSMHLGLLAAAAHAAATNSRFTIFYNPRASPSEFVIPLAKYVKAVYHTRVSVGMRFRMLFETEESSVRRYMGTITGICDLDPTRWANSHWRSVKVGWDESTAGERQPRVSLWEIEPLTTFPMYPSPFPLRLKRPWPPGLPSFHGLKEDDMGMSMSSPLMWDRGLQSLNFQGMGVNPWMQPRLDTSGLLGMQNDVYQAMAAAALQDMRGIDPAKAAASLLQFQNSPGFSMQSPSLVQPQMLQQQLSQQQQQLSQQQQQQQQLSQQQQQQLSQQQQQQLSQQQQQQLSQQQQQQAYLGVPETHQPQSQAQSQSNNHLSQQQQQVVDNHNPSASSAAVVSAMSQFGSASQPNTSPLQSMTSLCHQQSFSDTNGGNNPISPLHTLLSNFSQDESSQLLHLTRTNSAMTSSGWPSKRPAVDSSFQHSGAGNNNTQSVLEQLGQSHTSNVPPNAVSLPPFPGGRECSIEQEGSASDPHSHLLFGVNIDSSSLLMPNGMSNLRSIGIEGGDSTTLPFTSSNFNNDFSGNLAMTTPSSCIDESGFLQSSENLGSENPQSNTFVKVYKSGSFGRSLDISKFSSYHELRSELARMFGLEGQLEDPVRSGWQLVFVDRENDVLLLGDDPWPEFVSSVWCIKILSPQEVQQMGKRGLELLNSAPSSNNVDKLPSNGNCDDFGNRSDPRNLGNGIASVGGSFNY

[2] = biological target: T2, cEYFP-ARF19 (Arabidopsis thaliana) (UniProt Q8RYC8); experiment: as above
T2 sequence: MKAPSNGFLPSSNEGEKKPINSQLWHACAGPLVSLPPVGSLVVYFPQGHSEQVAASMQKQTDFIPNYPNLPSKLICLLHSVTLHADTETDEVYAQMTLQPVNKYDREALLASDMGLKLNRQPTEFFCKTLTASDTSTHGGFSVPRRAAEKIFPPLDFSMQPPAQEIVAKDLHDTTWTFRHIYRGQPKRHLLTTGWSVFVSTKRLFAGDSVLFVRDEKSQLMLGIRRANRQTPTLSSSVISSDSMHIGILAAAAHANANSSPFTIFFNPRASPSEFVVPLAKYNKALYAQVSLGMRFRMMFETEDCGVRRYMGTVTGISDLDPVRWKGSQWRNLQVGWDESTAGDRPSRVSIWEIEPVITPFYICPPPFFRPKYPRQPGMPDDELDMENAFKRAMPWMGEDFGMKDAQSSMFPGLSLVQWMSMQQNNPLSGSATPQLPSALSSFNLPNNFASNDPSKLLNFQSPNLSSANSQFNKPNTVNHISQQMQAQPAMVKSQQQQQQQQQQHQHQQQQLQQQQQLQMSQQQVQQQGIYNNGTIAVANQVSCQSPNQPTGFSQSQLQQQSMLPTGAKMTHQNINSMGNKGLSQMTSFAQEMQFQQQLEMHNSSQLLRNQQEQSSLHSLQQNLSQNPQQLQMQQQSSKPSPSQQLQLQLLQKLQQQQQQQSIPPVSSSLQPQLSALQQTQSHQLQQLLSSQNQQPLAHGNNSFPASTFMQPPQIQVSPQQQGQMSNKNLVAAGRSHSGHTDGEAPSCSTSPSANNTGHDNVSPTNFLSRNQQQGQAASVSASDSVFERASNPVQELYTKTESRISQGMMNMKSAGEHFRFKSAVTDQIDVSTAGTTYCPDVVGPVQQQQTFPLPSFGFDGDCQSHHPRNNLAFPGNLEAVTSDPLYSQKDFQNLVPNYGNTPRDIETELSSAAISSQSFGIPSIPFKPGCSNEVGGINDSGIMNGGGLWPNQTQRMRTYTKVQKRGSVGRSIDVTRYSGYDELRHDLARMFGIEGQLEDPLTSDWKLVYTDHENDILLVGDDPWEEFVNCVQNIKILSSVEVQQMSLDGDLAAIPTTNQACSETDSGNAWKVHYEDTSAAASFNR

[3] = biological target: T3, ARF11 (Arabidopsis thaliana), Q9ZPY6; experiment: two-hybrid; S. cerevisiae AH109 co-transformed with pGBKT7-ARF (bait) and pGADT7-Aux/IAA (prey); growth on SD/-Ade-His-Leu-Trp against SD/-Leu/-Trp; at least 10 independent colonies; serial dilutions for strength; conditions: remark: other sources report otherwise
T3 chain: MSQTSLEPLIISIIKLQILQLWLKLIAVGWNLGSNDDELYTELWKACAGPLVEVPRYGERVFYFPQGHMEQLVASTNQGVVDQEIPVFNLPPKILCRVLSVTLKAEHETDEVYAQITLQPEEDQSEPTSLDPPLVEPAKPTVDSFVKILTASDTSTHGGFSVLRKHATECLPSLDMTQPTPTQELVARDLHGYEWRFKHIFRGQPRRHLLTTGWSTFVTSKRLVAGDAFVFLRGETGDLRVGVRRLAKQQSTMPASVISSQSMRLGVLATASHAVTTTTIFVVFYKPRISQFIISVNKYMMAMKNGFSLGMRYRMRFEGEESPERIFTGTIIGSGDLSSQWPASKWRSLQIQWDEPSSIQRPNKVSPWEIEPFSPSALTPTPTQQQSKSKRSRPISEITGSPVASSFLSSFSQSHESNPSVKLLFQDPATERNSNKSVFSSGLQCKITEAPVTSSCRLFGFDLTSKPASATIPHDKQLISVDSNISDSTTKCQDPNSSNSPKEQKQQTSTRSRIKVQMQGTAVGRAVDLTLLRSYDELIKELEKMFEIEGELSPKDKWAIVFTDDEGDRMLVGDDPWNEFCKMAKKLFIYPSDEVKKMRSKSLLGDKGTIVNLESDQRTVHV

B1: nEYFP-Aux/IAA32 (protein, UniProt Q8RYC6 1-191)
chain: MDPNTPADFFKGSSKFHTYYSQTKKGGGVIDLGLSLRTIQHETYLPPARMIGLDGYGELIDWSQPSYNSITQLKSEDTGHQRLAQGYYNNEGESRGKYAYVKVNLDGLVVGRKVCLVDQGAYATLALQLNDMFGMQTVSGLRLFQTESEFSLVYRDREGIWRNVGDVPWKEFVESVDRMRIARRNDALLPF
Question: With B1 as the binder, how does the binding [1] read?
Answer: Its binding is “binds”.

B2: nEYFP-Aux/IAA34 (protein, UniProt Q9C5X0 1-185)
chain: MYCSDPPHPLHLVASDKQQKDHKLILSWKKPTMDSDPLGVFPNSPKYHPYYSQTTEFGGVIDLGLSLRTIQHEIYHSSGQRYCSNEGYRRKWGYVKVTMDGLVVGRKVCVLDHGSYSTLAHQLEDMFGMQSVSGLRLFQMESEFCLVYRDEEGLWRNAGDVPWNEFIESVERLRITRRNDAVLPF
Question: For B2, which binding [2] is on record?
Answer: The binding was “binds”.

B3: Aux/IAA8, Q38826 1-321 (protein)
chain: MSYRLLSVDKDELVTSPCLKERNYLGLSDCSSVDSSTIPNVVGKSNLNFKATELRLGLPESQSPERETDFGLLSPRTPDEKLLFPLLPSKDNGSATTGHKNVVSGNKRGFADTWDEFSGVKGSVRPGGGINMMLSPKVKDVSKSIQEERSHAKGGLNNAPAAKAQVVGWPPIRSYRKNTMASSTSKNTDEVDGKPGLGVLFVKVSMDGAPYLRKVDLRTYTSYQQLSSALEKMFSCFTLGQCGLHGAQGRERMSEIKLKDLLHGSEFVLTYEDKDGDWMLVGDVPWEIFTETCQKLKIMKGSDSIGLAPGAVEKSKNKERV
Question: For B3, which binding [3] is on record?
Answer: The binding was “no binding”.
